In the supplement of paper PMC4604168 (melanoma cell lines):
The other results are listed elsewhere or left out. Most values come without repeats; read them as rough.

What was measured:
Assay in all cases: cell count relative to DMSO control; melanoma cells; higher = more viable cells
Conditions in all cases: library dose: low library concentration; 72 h
MZ2-MEL = system: MZ2-MEL
MeWo = system: MeWo
RPMI7951 = system: RPMI7951
RVH-421 = system: RVH-421
SkMel28 = system: SkMel28
SkMel2 = system: SkMel2
SkMel30 = system: SkMel30
UACC62 = system: UACC62
WM115 = system: WM115
WM1716 = system: WM1716
WM1745 = system: WM1745
WM3526 = system: WM3526
WM3619 = system: WM3619
WM451Lu = system: WM451Lu
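Also: cell number obtained by counting DAPI-stained nuclei in high-throughput microscope images with image analysis software, screen run in 1,536-well plates.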

Structure (SMILES)	cell count (MZ2-MEL)	cell count (MeWo)	cell count (RPMI7951)	cell count (RVH-421)	cell count (SkMel28)	cell count (SkMel2)	cell count (SkMel30)	cell count (UACC62)	cell count (WM115)	cell count (WM1716)	cell count (WM1745)	cell count (WM3526)	cell count (WM3619)	cell count (WM451Lu)
O=C(/C=C/c1cccnc1)NCCCCC1CCN(C(=O)c2ccccc2)CC1 + N.N.[Cl][Pt][Cl] [cisplatin] (first compound 0.01 µM, partner dose 1.6 µM)	48.6%	102%	104%	29.7%	105%	18.6%	104%	92.7%	98.8%	89.7%	98.7%	104%	65.9%	102%
O=c1[nH]nc(Sc2ncc([N+](=O)[O-])s2)n1-c1ccc2c(c1)OCCO2 + Cn1cc(C2=C(c3cn(C4CCN(Cc5ccccn5)CC4)c4ccccc34)C(=O)NC2=O)c2ccccc21 [Enzastaurin] (first compound 0.2 µM, partner dose 0.8 µM)	102%	104%	106%	112%	98.8%	114%	114%	123%	114%	106%	99.3%	104%	96.3%	110%
O=C(/C=C/c1cccnc1)NCCCCC1CCN(C(=O)c2ccccc2)CC1 + Cn1cc(C2=C(c3cn(C4CCN(Cc5ccccn5)CC4)c4ccccc34)C(=O)NC2=O)c2ccccc21 [Enzastaurin] (first compound 0.01 µM, partner dose 0.8 µM)	42.8%	101%	88.8%	60.9%	91.8%	25.6%	105%	115%	103%	95%	100%	84.2%	88.7%	124%
CC(=O)O[C@@]12CO[C@@H]1C[C@H](O)[C@@]1(C)C(=O)[C@H](O)C3=C(C)[C@@H](OC(=O)[C@H](O)[C@@H](NC(=O)OC(C)(C)C)c4ccccc4)C[C@@](O)([C@@H](OC(=O)c4ccccc4)[C@H]21)C3(C)C [Docetaxel] + N.N.[Cl][Pt][Cl] [cisplatin] (first compound 0.0001 µM, partner dose 1.6 µM)	50.2%	46.8%	52.5%	55.2%	57.7%	47.7%	41.7%	39.5%	58.2%	45.8%	61.8%	45.4%	81.6%	68.6%
CC1(C)CCC(c2ccc(Cl)cc2)=C(CN2CCN(c3ccc(C(=O)NS(=O)(=O)c4ccc(N[C@H](CCN5CCOCC5)CSc5ccccc5)c(S(=O)(=O)C(F)(F)F)c4)cc3)CC2)C1 + Cn1cc(C2=C(c3cn(C4CCN(Cc5ccccn5)CC4)c4ccccc34)C(=O)NC2=O)c2ccccc21 [Enzastaurin] (first compound 0.4 µM, partner dose 0.8 µM)	99.2%	87.7%	60.2%	60.4%	104%	88.3%	64.2%	94.9%	110%	77.2%	9.87%	100%	103%	87.3%
CCCCCCCCCCCCCCCCCCOP(=O)([O-])OC1CC[N+](C)(C)CC1 [Perifosine] + Cn1cc(C2=C(c3cn(C4CCN(Cc5ccccn5)CC4)c4ccccc34)C(=O)NC2=O)c2ccccc21 [Enzastaurin] (first compound 0.4 µM, partner dose 0.8 µM)	102%	100%	78.8%	75%	106%	100%	109%	92.5%	109%	92.6%	110%	105%	93.4%	121%
NC1(c2ccc(-c3nc4ccn5c(=O)[nH]nc5c4cc3-c3ccccc3)cc2)CCC1 + C[As](C)SC[C@H](NC(=O)CC[C@H](N)C(=O)O)C(=O)NCC(=O)O [Darinaparsin] (first compound 0.4 µM, partner dose 0.4 µM)	95%	76.4%	88%	95.9%	77.7%	87.4%	83%	66.3%	92%	85.6%	78.4%	76.7%	100%	83.9%
O=C(O)[C@@H]1[O][Sb](=[O])([O][Sb]2(=[O])[O][C@H]([C@H](O)CO)[C@H](O)[C@H](C(=O)O)[O]2)[O][C@H]([C@H](O)CO)[C@@H]1O (stereo not given in full) [stibogluconate] + C[As](C)SC[C@H](NC(=O)CC[C@H](N)C(=O)O)C(=O)NCC(=O)O [Darinaparsin] (first compound 2 µM, partner dose 0.4 µM)	99.1%	97.7%	93.5%	114%	90.9%	103%	105%	97.5%	102%	100%	109%	101%	93%	114%
CCCCCCCCc1ccc(CCC(N)(CO)CO)cc1 [fingolimod] + C[As](C)SC[C@H](NC(=O)CC[C@H](N)C(=O)O)C(=O)NCC(=O)O [Darinaparsin] (first compound 2 µM, partner dose 0.4 µM)	102%	82.8%	80.6%	84.5%	81.8%	98.2%	91.2%	82.9%	89.8%	74.7%	64.8%	84.2%	52.9%	108%
C[C@@H](N)c1ccc(C(=O)Nc2ccnc3[nH]ccc23)cc1 + N.N.[Cl][Pt][Cl] [cisplatin] (first compound 0.4 µM, partner dose 1.6 µM)	70.6%	74.7%	75.4%	73.2%	84.9%	96.8%	113%	88.6%	100%	77%	84.2%	115%	93.3%	95.5%
